The list shows a part of the results.
The sequences below were run on T1, Caupolican (Caup) homeodomain DNA-binding domain (assay: PBM E-score (8-mer, recovered from the published 9-mer minima) (E-score (dimensionless, -0.5 to 0.5)); Drosophila protein; higher = stronger relative binding preference, active = 0.31 or more).
T1 sequence: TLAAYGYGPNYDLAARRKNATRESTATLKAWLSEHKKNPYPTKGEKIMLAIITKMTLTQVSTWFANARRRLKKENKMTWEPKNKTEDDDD
Experimental: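 Protein binding microarray (PBM): in vitro transcribed/translated Caupolican (Caup) homeodomain DNA-binding domain (residues 214-303) applied at 100 nM to a universal 8-mer PBM array (Agilent AMADID 015681). The 8-mer enrichment score (E-score, range -0.5 to 0.5) was computed, and each 9-mer score is the minimum E-score of its two constituent 8-mers. The E-score is the same for a 9-mer and its reverse complement; 0.31 is the stated binding threshold.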

Sequence | PBM E-score
AGTCAGGC | inactive: -0.0766
CATCTGAA | inactive: 0.0826
GAATCATC | inactive: 0.094
GGCGGTTA | inactive: -0.105
GCTCGTAC | inactive: 0.119
ACCGATTC | inactive: -0.0481
GCAAGAGA | inactive: -0.0921
TCGAACCA | inactive: -0.03
CGTCGTCA | inactive: -0.0203
CCGCTTCA | inactive: -0.12
AGAGAGAT | inactive: 0.0266
GGCCCGAA | inactive: -0.184
ATGGGTTA | inactive: 0.0982
GGTCCAAA | inactive: -0.052
ATTTTAGA | inactive: 0.0139
AGACCCAC | inactive: -0.152
AGCACGCC | inactive: -0.187
GCAGACAA | inactive: 0.116
CAGACTTC | inactive: -0.0341
ACTCTCGC | inactive: -0.115
CCGACTGC | inactive: -0.139
ATCTGCAA | inactive: 0.0673
ACTCAGCT | inactive: -0.0505
AGGAACGA | inactive: -0.038
ACCGCGCT | inactive: -0.108

Sequence | PBM E-score
ACTGCGGA | inactive: -0.03
CGCGAAGA | inactive: -0.0746
AGTTTCCC | inactive: -0.127
ACTTTTAA | inactive: 0.0462
CCACGAGC | inactive: -0.122
GATCGGGC | inactive: -0.15
CCTGTAAA | inactive: 0.131
CCCTGAAA | inactive: -0.0553
AAAGCCAA | inactive: -0.0847
AGATATGG | inactive: 0.106
CCAGAGGG | inactive: -0.281
GATCCTAA | inactive: 0.0403
ATCTTTGG | inactive: -0.0471
ATTCGAGG | inactive: -0.0796
CTCAACAA | inactive: 0.178
GAATCGTC | inactive: -0.134
CGGTTGGC | inactive: -0.17
CTTGGTAA | inactive: 0.0467
GGCAGAAC | inactive: -0.044
AGTCTAGC | inactive: -0.122
GACATCCC | inactive: 0.22
AATATAAA | inactive: 0.17
ATATTACA | active: 0.35
ACTGAAGG | inactive: -0.0463
AAACCTGA | inactive: 0.0633

Sequence | PBM E-score
GCGCTTGA | inactive: -0.0585
CTAGGTGA | inactive: 0.00772
CAGTGCAG | inactive: -0.113
CGTAGCCA | inactive: -0.0662
ACGCACGC | inactive: -0.0707
ATGGTAAT | inactive: 0.224
AGATCGTA | inactive: 0.0125
AGCCACGG | inactive: -0.237
AACCATGG | inactive: 0.0193
ATGTACAT | active: ≥ 0.469
TTGGACAA | inactive: 0.289
AGCCGTCA | inactive: -0.0842
CGTACCAG | inactive: -0.0187
CGGAAACA | inactive: 0.169
GAAGTCTC | inactive: -0.118
AGGCCGGA | inactive: -0.274
GATACACC | inactive: 0.165
CATAGACG | inactive: 0.113
ACGAACGT | inactive: -0.00471
ATGATCAT | inactive: 0.125
CAATAATC | inactive: 0.102
AAAGGAGG | inactive: -0.2
CGAGGGCC | inactive: -0.192
CGTAAACC | inactive: -0.0982
TGAGGTAA | inactive: 0.0515

Sequence | PBM E-score
ATGGGGTC | inactive: -0.189
GCTTAAGC | inactive: -0.113
CTCGGATA | inactive: 0.034
CTTCTTTC | inactive: -0.0224
GCGCGAGA | inactive: -0.0941
CGTCAAGA | inactive: -0.0961
TAGACCTA | inactive: 0.028
CCACATAA | inactive: 0.0629
TAATATTA | inactive: 0.217
ATCGCAAT | inactive: 0.068
CCTCTCGC | inactive: -0.131
GATTTGGC | inactive: 0.0186
CTCACTTC | inactive: -0.186
AGCATAGA | inactive: 0.024
ATGCCCGA | inactive: -0.0379
ACGTCACT | inactive: 0.0389
CACAAGCC | inactive: 0.00236
CGACGATC | inactive: 0.00125
CCCATTTA | inactive: -0.0188
AGCCACAT | inactive: 0.0502
CGCGACAA | inactive: 0.135
AACAGTGT | inactive: 0.217
ATCTACTC | inactive: -0.00774
CTAGAGCA | inactive: -0.132
ATTCTCAC | inactive: 0.0568

Sequence | PBM E-score
GTACAGGA | inactive: 0.215
ACGCCGTG | inactive: -0.0416
ACTGTAAT | ≥ 0.25
AGTGGAGG | inactive: -0.192
ACATGCGG | inactive: 0.195
ATCGGAGG | ≥ -0.0367
GCTATGCA | inactive: -0.0587
CGGTTGAA | inactive: 0.0594
AGAGACGC | inactive: -0.123
GCCCCGGC | inactive: -0.316
CGGTCCAC | inactive: -0.159
GGGCACGA | inactive: -0.135
AAGAGCCG | inactive: -0.192
CACTTGAC | inactive: -0.00051
GACTTATC | inactive: -0.0506
AGCTACTA | inactive: 0.0754
GTACTACA | active: 0.376
ACTTTTTG | inactive: 0.0504
ACCAGTCC | inactive: -0.146
TAGAATGA | inactive: 0.1
GGGCGACA | inactive: 0.00421
AATCATCG | inactive: 0.0554
GCCGCGAC | inactive: -0.16
CATGTTAA | active: 0.446
ATTAGGCC | inactive: -0.105

Sequence | PBM E-score
ATCCCGAG | inactive: -0.0679
GAGGAATA | inactive: 0.0804
CCGCTTAC | inactive: 0.00718
GAACATGA | active: 0.421
CGAAATTA | inactive: 0.0602
ACAAGAAG | inactive: 0.183
ATAAGAGG | inactive: -0.0631
GTGGCAGA | inactive: -0.127
ATGTGCCG | inactive: 0.00478
CATCCCGG | inactive: -0.0912
ACCTGTAG | inactive: 0.0685
CCGGCACC | inactive: -0.133
CACGCGCG | inactive: -0.13
CTTATGCC | inactive: -0.12
GCAAGGGC | inactive: -0.246
AACGCCAG | inactive: -0.0943
ATCGATTG | ≥ 0.168
CATGCCTA | inactive: -0.00155
CCCTCGCC | inactive: -0.245
TTGCCAAA | inactive: -0.0145
TACAAACA | active: ≥ 0.368
AACCCTGA | inactive: 0.0485
CTGTGCTA | inactive: -0.0423
ACGACTGC | inactive: -0.0879
AAACTCAC | inactive: -0.0156

Sequence | PBM E-score
CGCCAAAG | inactive: -0.184
ATAGATTG | inactive: 0.0996
GAGCCACA | inactive: -0.0491
CCCAATCA | inactive: -0.0612
CGTAGGTA | inactive: 0.00757
ATGTGACA | inactive: 0.295
GCCTTGTA | active: 0.321
CTATCGCA | inactive: -0.029
GGGTCGAA | inactive: -0.183
ATACCGGA | inactive: 0.083
CGCAGAAG | inactive: -0.119
AGATCTCC | inactive: -0.109
AGGCCGGG | inactive: -0.268
CAAGTGCG | inactive: -0.0347
CGAATACC | inactive: 0.0173
AGATCCAA | inactive: 0.0349
ATTGATCC | inactive: 0.0574
TAACGTTA | inactive: 0.117
TCGCGCGA | inactive: -0.135
AGAACTAG | inactive: 0.051
GGCGGGGA | inactive: -0.106
ACAGTGGT | inactive: 0.0669
CCGATCTA | inactive: -0.0062
ATCCTTTC | inactive: 0.0514
GGCCTAAA | inactive: -0.0132

Sequence | PBM E-score
GACGTCGA | inactive: 0.00514
ACTGTCGA | inactive: 0.0243
ACCAGTGG | inactive: 0.0166
ACAGACAG | inactive: 0.127
GAATGCCA | inactive: -0.126
AGTAGCGG | inactive: -0.174
CGAAACGC | inactive: -0.111
AGTTGCTC | inactive: 0.0426
CGGTTACC | inactive: -0.0529
GCGTCAAA | inactive: -0.0205
ACACGCGT | inactive: 0.266
AAATGACC | inactive: -0.0401
AAAACTTT | inactive: 0.0241
CACTGGTC | inactive: -0.00509
AACGGCCA | ≥ -0.0672
ATATTAAG | inactive: 0.169
GCAACGCC | inactive: -0.0458
GAGTACCC | inactive: -0.0435
CGCCCAGC | inactive: -0.274
AGGCCGTC | inactive: -0.158
CACAGCCA | inactive: 0.0164
AGCTGGGA | ≥ -0.0926
AGCCATCC | inactive: -0.117
CTGAACAC | inactive: 0.235
GCGTAGGA | inactive: -0.169

Sequence | PBM E-score
AGGTATAG | inactive: -0.0297
ATCCGAGA | inactive: 0.0105
CTACCTGC | inactive: -0.139
CACGACCA | inactive: 0.098
CTTGGAAA | inactive: 0.0432
GCTTGTCC | inactive: 0.305
ACCAGCCT | inactive: -0.101
CCAGCGAG | inactive: -0.183
CCCGCTTC | inactive: -0.228
ATCAATTC | inactive: 0.0533
GTTAAAAA | inactive: 0.142
AAGCCTAC | inactive: -0.0275
CACCGGGC | inactive: -0.224
AACCCACT | inactive: -0.0915
GGGGGTGA | inactive: -0.237
AGGAGGAT | ≥ -0.00134
TGTCCAAA | ≥ 0.295
AAGACCTT | inactive: -0.00031
GTGTCCGA | inactive: 0.151
ATTCCGTC | inactive: 0.0459
GTTGCGCA | inactive: -0.0292
AGCAAGCG | inactive: 0.0226
CCTTGGAC | inactive: 0.00105

Source: the supplement of paper PMC3724861
